Source: publication PMC10187671 (RNA, 2023)

B1: She2 T109A, yeast two-hybrid fusion (natural protein)
chain: not shown
B2: She2 T109D, yeast two-hybrid fusion (natural protein)
chain: not shown

Experiments:
Assay in all cases: two-hybrid
two-hybrid = molecular target: the molecule itself
[1] = molecular target: T1, importin-α Srp1, yeast two-hybrid fusion (S. cerevisiae, UniProt Q02821 1-542)
T1 sequence (looked up): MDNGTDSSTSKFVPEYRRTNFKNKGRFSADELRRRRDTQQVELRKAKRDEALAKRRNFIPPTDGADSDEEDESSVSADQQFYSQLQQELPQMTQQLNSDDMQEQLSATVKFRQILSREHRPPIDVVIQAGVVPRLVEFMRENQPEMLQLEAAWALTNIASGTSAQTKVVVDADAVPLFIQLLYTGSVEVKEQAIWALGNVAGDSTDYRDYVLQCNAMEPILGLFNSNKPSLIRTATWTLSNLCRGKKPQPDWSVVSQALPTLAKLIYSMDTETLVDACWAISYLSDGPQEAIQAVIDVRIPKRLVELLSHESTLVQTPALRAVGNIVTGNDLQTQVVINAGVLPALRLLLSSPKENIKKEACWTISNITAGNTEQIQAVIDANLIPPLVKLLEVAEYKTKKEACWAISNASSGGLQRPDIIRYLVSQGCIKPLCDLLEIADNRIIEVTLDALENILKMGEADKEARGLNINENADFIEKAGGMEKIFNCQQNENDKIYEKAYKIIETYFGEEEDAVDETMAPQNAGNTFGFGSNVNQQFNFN

[2] = molecular target: T2, She3, yeast two-hybrid fusion (S. cerevisiae, UniProt P38272 1-425)
T2 sequence (looked up): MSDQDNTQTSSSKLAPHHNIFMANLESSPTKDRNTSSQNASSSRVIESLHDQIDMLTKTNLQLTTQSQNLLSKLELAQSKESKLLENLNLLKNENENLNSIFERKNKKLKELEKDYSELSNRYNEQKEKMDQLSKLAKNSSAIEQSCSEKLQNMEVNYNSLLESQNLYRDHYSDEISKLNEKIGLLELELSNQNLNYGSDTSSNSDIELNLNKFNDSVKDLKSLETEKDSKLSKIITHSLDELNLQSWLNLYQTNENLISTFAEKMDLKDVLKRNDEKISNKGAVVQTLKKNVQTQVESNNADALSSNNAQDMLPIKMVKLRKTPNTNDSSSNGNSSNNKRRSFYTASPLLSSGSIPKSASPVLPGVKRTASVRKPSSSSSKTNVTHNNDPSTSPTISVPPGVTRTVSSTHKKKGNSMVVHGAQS

[3] = molecular target: She2 (wild type), yeast two-hybrid fusion (S. cerevisiae, UniProt P36068)

Binder | fold reduction in β-galactosidase activity against wild-type She2–She2 (two-hybrid) | fold decrease in interaction against She2 WT or She2 T109A [1] | fold decrease in interaction against wild-type She2–She2 (two-hybrid) | fold decrease of the She2–She3 complex against wild-type She2 [2] | fold decrease in interaction against wild-type She2–She2 [3]
B1 | 3 fold | – | – | – | –
B2 | – | 6 fold | ~20 fold | 2 fold | ~20 fold
